These results are taken from article PMC5540273 (PLoS ONE, 2017).

For some of these results: What follows is the remainder of the data, with few or none of the strong results. This is a selection; strong and weak results do not stand in their true shares.

Settings in all cases: concentration: 1 μM,replicates: in singlicate; n = 1
Assay [1] deals with ROCK2.
Assay [2] has as its system ROS1.
Assay [3] relates to RPS6KA4(Kin.Dom.1-N-terminal).
The test system of assay [4] is RPS6KA4(Kin.Dom.2-C-terminal).
Assay [5] concerns RPS6KA5(Kin.Dom.1-N-terminal).
Assay [6] relates to RPS6KA5(Kin.Dom.2-C-terminal).
Assay [7] deals with T1, RSK1(Kin.Dom.1-N-terminal).
T1 construct: gene RPS6KA1

Assay [8] concerns T2, RSK1(Kin.Dom.2-C-terminal).
T2 construct: gene RPS6KA1

The subject of assay [9] is T3, RSK2(Kin.Dom.1-N-terminal).
T3 construct: gene RPS6KA3

For assay [10], the system named is T4, RSK2(Kin.Dom.2-C-terminal).
T4 construct: gene RPS6KA3
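Also: KINOMEscan kinase panel screen.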

For the compound `CS(=O)(=O)c1ccccc1-c1nc(-c2ccc(F)cc2)c(-c2ccncc2)[nH]1` [SB-213663], the “%Inh” value in assay [1] was determined as 43%; in assay [2], 0%; in [3], 21%; in assay [4], 0%; in [5], 0%; in [6], 0%. Besides, the “%Inh” value in [7] came to 24%; in assay [8], 24%; in assay [9], 5%; in assay [10], 14%.

As for `O=C1NC(=O)C(c2ccc(Cl)cc2)=C1Nc1cccc(O)c1` [SB-333613], the “%Inh” value in assay [1] stood at 32%; in assay [2] it was 0%; in assay [3], 0%; in assay [4], 0%; in assay [5], 0%; in assay [6] it was 0%. For the same compound, the “%Inh” value in assay [7] is 0%; in assay [8], 24%; in assay [9], 37%; in assay [10] it was 47%.

On to `COc1cccc(C2=C(Nc3ccc(SC)cc3)C(=O)NC2=O)c1` [SB-331032], for which the “%Inh” value in [1] came to 28%; in [2], 22%; in assay [3], 17%; in assay [4], 0%; in [5], 0%; in assay [6], 20%. Also, the “%Inh” value in [7] is recorded as 0%; in [8], 34%; in assay [9] it was 38%; in assay [10] it was 7%.

As for `O=C1NC(=O)C(c2ccccc2)=C1Nc1ccc(Cl)c(C(=O)O)c1` [SB-390532], the “%Inh” value in [1] is recorded as 26%; in assay [2], 0%; in assay [3] it was 0%; in assay [4], 0%; in [5], 0%; in assay [6], 0%. Besides, the “%Inh” value in assay [7] is reported as 25%; in [8], 0%; in assay [9], 4%; in assay [10], 16%.

With `O=C1NC(=O)C(c2ccc(Cl)cc2)=C1Nc1cccc(C(=O)O)c1` [SB-360737], the “%Inh” value in assay [1] amounted to 70%; in assay [2], 0%; in [3], 11%; in [4], 0%; in assay [5], 11%; in assay [6] it was 0%. Further, the “%Inh” value in assay [7] is 27%; in assay [8], 6%; in assay [9], 8%; in assay [10], 0%.

Turning to `Cc1cc(C)cc(Oc2nccc(-c3c(-c4ccc(F)cc4)ncn3C3CCNCC3)n2)c1.O=C(O)C(F)(F)F.O=C(O)C(F)(F)F.O=C(O)C(F)(F)F` [SB-284851], the “%Inh” value stood at 0% in assay [1]; 0% in assay [2]; 0% in assay [3]; 0% in [4]; 0% in [5]; 17% in assay [6]. Besides, the “%Inh” value in assay [7] stood at 0%; in assay [8], 0%; in assay [9], 12%; in assay [10] it was 49%.

Consider `O=C1NC(=O)C(c2ccccc2Cl)=C1Nc1ccccc1` [SB-376715], for which the “%Inh” value in assay [1] was found to be 0%; in assay [2] it was 14%; in [3] it was 0%; in assay [4], 0%; in [5], 0%; in assay [6] it was 4%. Besides, the “%Inh” value in assay [7], in assay [8], in assay [9] and in [10] was 0% each time.

In the case of `Cc1ccc(C)c(Oc2nccc(-c3c(-c4ccc(F)cc4)ncn3C3CCNCC3)n2)c1.O=C(O)C(F)(F)F.O=C(O)C(F)(F)F.O=C(O)C(F)(F)F` [SB-284852], the “%Inh” value is listed as 0% in [1]; 0% in assay [2]; 17% in [3]; 5% in assay [4]; 3% in [5]; 6% in assay [6]. Besides, the “%Inh” value was found to be 7% in assay [7], 0% in assay [8], 0% in [9] and 30% in assay [10].

`COc1ccc(C2=C(Nc3cccc(Cl)c3)C(=O)NC2=O)cc1` [SB-326892]: the “%Inh” value in [1] is reported as 0%; in assay [2] it was 0%; in [3], 8%; in [4] it was 6%; in assay [5], 0%; in assay [6], 2%. Further, the “%Inh” value is reported as 0% in [7], 57% in assay [8], 7% in assay [9] and 6% in [10].

As for `O=C1NC(=O)C(c2ccccc2)=C1Nc1cc(Cl)c(O)c(Cl)c1` [SB-390530], the “%Inh” value in [1] is listed as 5%; in [2], 0%; in assay [3], 0%; in assay [4], 0%; in assay [5], 5%; in assay [6], 0%. For the same compound, the “%Inh” value came to 0% in assay [7], 0% in assay [8], 0% in assay [9] and 6% in assay [10].

With `O=C1NC(=O)c2c1c(-c1ccccc1)cc1[nH]c3ccc(O)cc3c21`, the “%Inh” value came to 21% in assay [1]; 0% in assay [2]; 68% in assay [3]; 14% in assay [4]; 0% in assay [5]; 1% in assay [6]. For the same compound, the “%Inh” value is on record as 65% in [7], 14% in assay [8], 93.8% in assay [9] and 0% in assay [10].

For `O=C1NC(=O)C(c2ccccc2Cl)=C1Nc1cccc(C(=O)O)c1` [SB-390526], the “%Inh” value in assay [1] was 14%; in assay [2] it was 0%; in assay [3], 0%; in [4] it was 0%; in assay [5], 0%; in [6], 0%. For the same compound, the “%Inh” value in assay [7], in assay [8], in assay [9] and in assay [10] was 0% throughout.

For the compound `O=C1NC(=O)C(c2ccc(Cl)cc2)=C1Nc1ccccc1` [SB-317661], the “%Inh” value in assay [1] was found to be 53%; in [2], 0%; in assay [3] it was 2%; in [4] it was 25%; in assay [5] it was 0%; in assay [6], 0%. The “%Inh” value in assay [7] amounted to 0%; in [8], 0%; in assay [9], 50%; in assay [10], 0%.

As to `O=C(O)c1ccc(-c2nc(-c3ccc(F)cc3)c(-c3ccncc3)[nH]2)cc1` [SB-202620], the “%Inh” value in assay [1] is on record as 11%; in assay [2], 3%; in assay [3], 5%; in assay [4], 0%; in assay [5], 6%; in assay [6], 18%. The “%Inh” value in assay [7] is recorded as 34%; in [8], 76%; in [9], 34%; in [10], 0%.

For `CSc1ccc(NC2=C(c3cccc(Cl)c3)C(=O)NC2=O)cc1` [SB-341528], the “%Inh” value stood at 0% in assay [1]; 21% in assay [2]; 11% in assay [3]; 7% in assay [4]; 3% in assay [5]; 2% in assay [6]. Further, the “%Inh” value in assay [7] came to 22%; in assay [8], 0%; in assay [9], 14%; in [10] it was 0%.

On to `O=C1NC(=O)C(c2ccc(Cl)cc2)=C1Nc1ccc(O)c(Cl)c1` [SB-405367], for which the “%Inh” value turned out to be 0% in assay [1]; 0% in assay [2]; 0% in assay [3]; 14% in assay [4]; 0% in assay [5]; 2% in assay [6]. Also, the “%Inh” value in [7] is listed as 9%; in assay [8] it was 26%; in assay [9], 19%; in [10], 0%.
